# ± gives the standard deviation of the averaged measurements. The list shows a part of the results.
# Tested on: PfAP2-EXP AP2 domain (GST-tagged)
# Experiment: gcPBM binding intensity (ln(normalized median fluorescence intensity)); higher = stronger DNA binding
# Method in brief: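 Each value is the highest Masliner-normalised natural-log median intensity across replicate spots of either orientation of a probe. The probes were primer-extended double-stranded 36-bp intergenic genomic sequences on an Agilent 4 × 180k array, alongside negative controls, exposed for 1 h to GST-tagged P. falciparum DNA-binding domains expressed in E. coli. Bound protein was picked up with Alexa488 anti-GST antibody and scanned at 488 nm.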
row,Sequence,gcPBM binding intensity (ln)
1,AAGGATTATTTTAATCGTACATGTGTAAATAATATA [XGTACX_site6177],8.73 ± 0.35
2,AATGATGTTGTATTGTTTCGATATAACATCTAATTT [GTGCAC_negctrl_site309],8.27 ± 0.4
3,TTTTTTAAAATAATAGGTACACATAAAAAAAAAAAA [XGTACX_site2517],8.72 ± 0.67
4,CATACATACATACATACACACATATATATATATATG [CACACA_site1995],9.23 ± 0.17
5,TTATTTATTTTCATATGTACTTATTTATAGAGGTTG [XGTACX_site5599],8.8 ± 0.67
6,TATATATATAGACACACACACATATAAATAAATAAA [CACACA_site444],9.03 ± 0.071
7,GTGCGTGCGTGTACTTAACACACATAATATGTATTT [CACACA_site8336],8.58 ± 0.028
8,TAATTCCATAAGTAAACACACAAATGCCAAAATTTT [CACACA_site3205],8.63 ± 0.37
9,TCCATATGCAAACTGGTGCACAAGTAGCTTTTATAT,8.99 ± 0.3
10,TTCTTTGCTTCTGTTTCACACATTTTTAAAATAAGC [CACACA_site4741],9.12 ± 0.37
11,TTTCTTTTTCTAGTTATTTTTACTTATCCCTAATTT [TGCATGCA_negctrl_site460],8.83 ± 0.48
12,TTATAATTAAGATATAATCAATAATAACAAATGAAC [CACACA_negctrl_site1690],8.77 ± 0.42
13,ATATATAAAAATATTTGTACATATAGTTATATTTAT [XGTACX_site6114],8.43 ± 0.67
14,TTAAGCCGCAATATGGGTACATAGGAAGAAGGGGAA [XGTACX_site8397],8.87 ± 0.38
15,TTAAAGGGAATGTATACACACGTTTCTCTATGTTAT [CACACA_site4793],8.59 ± 0.31
16,TATATATTGTTATATACACACATGTATATAAAAAAT [CACACA_site3221],8.18 ± 0.33
17,GAGATGACATTACACAGTACCCAGGAAATCTACGGA [XGTACX_site4931],8.64 ± 0.54
18,CAAAAAAGGTCCCGGAGTACATATATAATTTTTTTT [XGTACX_site458],8.86 ± 0.33
19,ATTGTCCTAAATACTACAAAGTAGATCTTTAATATT [CACACA_negctrl_site1795],8.29 ± 0.32
20,ATTTGAGAGTTAACAAAATATTTGGCCATCTTTTAT [XGTACX_negctrl_site447],8.34 ± 0.41
21,TATAATAAATCATATGCATGTTGAAAAAAAAAAAAA [TGCATGCA_site923],8.56 ± 0.45
22,AATGTCCTTATTTGCACACACACATATAAGAAATTT [CACACA_site3186],8.8 ± 0.28
23,AACTCATAGCGGTGTGCACACAAAAAATTAAAAAAA [CACACA_site3033],8.94 ± 0.33
24,TCATAAATGAAACACACACACACATCTGGATACCCC [CACACA_site3332],9.18 ± 0.61

# — the supplement of paper PMC11417369
